Reference: patent US20220220204A1 (NANJING GENSCRIPT BIOTECH, published 2022)

Target: T1, human LAG-3 (LAG-3 effector Jurkat T cells) (human, UniProt P18627 23-525)
T1 sequence (looked up): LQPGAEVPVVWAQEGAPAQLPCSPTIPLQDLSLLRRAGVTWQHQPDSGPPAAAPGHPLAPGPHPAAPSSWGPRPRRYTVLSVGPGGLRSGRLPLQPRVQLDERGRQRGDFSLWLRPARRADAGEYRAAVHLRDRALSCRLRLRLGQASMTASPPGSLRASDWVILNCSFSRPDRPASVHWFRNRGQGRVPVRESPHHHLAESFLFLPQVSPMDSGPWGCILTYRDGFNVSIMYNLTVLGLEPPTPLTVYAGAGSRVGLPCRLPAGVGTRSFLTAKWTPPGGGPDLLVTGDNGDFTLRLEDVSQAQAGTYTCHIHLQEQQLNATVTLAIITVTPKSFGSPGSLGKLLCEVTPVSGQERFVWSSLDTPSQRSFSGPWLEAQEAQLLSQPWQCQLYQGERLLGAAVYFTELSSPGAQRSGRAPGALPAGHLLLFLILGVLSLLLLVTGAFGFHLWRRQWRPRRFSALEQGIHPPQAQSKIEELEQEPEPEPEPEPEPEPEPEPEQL
Assay: cell-based or functional assay

B1: sdAb-LAG3-IgG4PE (Fc fusion)
chain: EVQLVESGGGLVQPGGSLRLSCAASGYTVSSYCMGWFRQAPGKGREGVSAIDSDGSVSYADSVKGRFTISKDNSKNTLYLQMNSLRAEDTAVYFCAADLCWVDQDQGEYNTWGQGTLVTVSS[letters of human IgG4 Fc with changes not shown]
Question: B1 was tested. Which “Bottom (LAG-3 blockade bioassay)” value did it give?
Answer: Its value is 343000.

Question: What about the “Log EC50 (LAG-3 blockade bioassay)” value of the same binder?
Answer: Its value is 1.23.

Question: What about the “Top (LAG-3 blockade bioassay)” value of the same binder?
Answer: The value was 867000.
